55 compounds from article PMC4336329 (PLoS ONE, 2015) can be followed below.

Out of some 310,000 compounds screened, about 2,200 (0.71%) showed an effect of 50% or more. Effects have a minus sign here. Some of the results follow.

human ether-à-go-go-related gene (hERG) potassium channel, sequence (Q12809 whole entry, looked up): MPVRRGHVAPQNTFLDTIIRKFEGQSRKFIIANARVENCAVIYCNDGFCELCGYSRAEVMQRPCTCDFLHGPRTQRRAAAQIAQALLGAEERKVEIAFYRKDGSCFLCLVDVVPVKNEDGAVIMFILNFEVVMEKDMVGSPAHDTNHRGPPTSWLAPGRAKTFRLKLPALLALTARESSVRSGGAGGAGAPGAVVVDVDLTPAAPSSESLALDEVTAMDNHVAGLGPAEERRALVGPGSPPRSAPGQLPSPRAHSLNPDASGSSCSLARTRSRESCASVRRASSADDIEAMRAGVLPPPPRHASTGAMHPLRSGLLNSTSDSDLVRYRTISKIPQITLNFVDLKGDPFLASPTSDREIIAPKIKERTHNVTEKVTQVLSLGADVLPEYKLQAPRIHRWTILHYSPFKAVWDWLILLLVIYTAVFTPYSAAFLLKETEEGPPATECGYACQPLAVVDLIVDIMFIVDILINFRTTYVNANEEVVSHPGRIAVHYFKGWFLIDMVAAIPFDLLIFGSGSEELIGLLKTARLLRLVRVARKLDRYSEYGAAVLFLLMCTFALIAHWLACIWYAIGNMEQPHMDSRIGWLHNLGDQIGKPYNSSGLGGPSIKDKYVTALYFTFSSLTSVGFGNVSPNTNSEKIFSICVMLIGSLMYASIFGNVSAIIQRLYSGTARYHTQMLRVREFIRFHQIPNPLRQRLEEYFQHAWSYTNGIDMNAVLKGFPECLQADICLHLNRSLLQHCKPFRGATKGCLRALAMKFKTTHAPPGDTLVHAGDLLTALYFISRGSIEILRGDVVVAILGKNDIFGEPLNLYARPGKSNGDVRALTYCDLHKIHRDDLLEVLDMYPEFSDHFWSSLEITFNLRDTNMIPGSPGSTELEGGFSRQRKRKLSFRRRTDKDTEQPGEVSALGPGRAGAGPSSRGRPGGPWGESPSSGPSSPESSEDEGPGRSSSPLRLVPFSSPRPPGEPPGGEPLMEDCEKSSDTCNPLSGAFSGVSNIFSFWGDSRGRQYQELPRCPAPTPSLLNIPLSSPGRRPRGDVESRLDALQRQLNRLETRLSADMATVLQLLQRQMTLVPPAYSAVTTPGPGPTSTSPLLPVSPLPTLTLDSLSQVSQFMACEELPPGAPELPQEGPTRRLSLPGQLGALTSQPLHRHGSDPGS

This assay has as its target human ether-à-go-go-related gene (hERG) potassium channel (human, UniProt Q12809). The assay is described as follows: primary screen, population patch clamp on CHO cells stably expressing hERG. As to the method: Briefly, Chinese hamster ovary (CHO) cells stably expressing the hERG channel were dislodged from tissue culture flasks and dispensed into PPC plates. […] During the recording, background leak currents were estimated by a 100 ms step to -80 mV from an initial holding potential of -70 mV and subtracted from the subsequent current measurement. The campaign was conducted in two phases using slight differences in recording protocol. In the first phase, the initial voltage pulse used a 100 ms step to -30 mV from a holding potential of -70 mV, a 2 s conditioning step to +25 mV, and a 2 s test step to -30 mV. During the second phase of the screen, the potential during the conditioning step was raised to +45 mV. In both phases of the campaign, a secondary voltage pulse was applied using the same parameters as the second phase initial pulse. The initial and secondary pulses were applied in the absence of compound, and upon application of 1 μM and 10 μM test concentrations. Small molecule effects on hERG current density were quantified by […].
As to `O=[N+]([O-])c1ccccc1S(=O)(=O)Nc1ccc2c(c1)OCCO2`, the “hERG current change (%, negative = inhibition) at 1uM” value was found to be 6.28%.

Consider `CCOc1ccc(NC(=O)C/C(C)=N/NC(=O)c2cnccn2)cc1`, for which the “hERG current change (%, negative = inhibition) at 1uM” value was found to be 0.75%.

Turning to `Cc1nnsc1C(=O)Nc1cccc(Cl)c1`, the “hERG current change (%, negative = inhibition) at 1uM” value is recorded as 12.5%.

With `COc1ccc2c(c1)CCC/C2=N/OC(=O)c1ccccc1OC`, the “hERG current change (%, negative = inhibition) at 1uM” value stood at 15.4%.

In the case of `COc1ccc(OC)c(CCNC(=O)Cn2cccc2C(=O)c2ccccc2C)c1`, the “hERG current change (%, negative = inhibition) at 1uM” value was found to be 3.24%.

As to `Cc1cc2nn(-c3cccc4ccccc34)nc2cc1NC(=O)c1cccs1`, the “hERG current change (%, negative = inhibition) at 1uM” value came out at 6.09%.

Take `Cc1ccc(NC(=S)NC(=O)c2ccc(F)cc2)cc1S(=O)(=O)Nc1cccc(Cl)c1`: the “hERG current change (%, negative = inhibition) at 1uM” value is 9.91%.

On to `CCC(NC(=O)Cc1cccs1)c1ccccc1` (stereo not shown), for which the “hERG current change (%, negative = inhibition) at 1uM” value came to 16.5%.

For the compound `Cc1nnc(NC(=O)/C=C/c2ccco2)s1`, the “hERG current change (%, negative = inhibition) at 1uM” value turned out to be 18.9%.

`Cc1nc(Nc2ccccc2Br)c2nnn(Cc3ccccc3)c2n1`: the “hERG current change (%, negative = inhibition) at 1uM” value is reported as 11.4%.

`Cc1ccc(S(=O)(=O)Nc2nc3n(n2)C(c2ccc(Cl)cc2)CC(=O)N3)cc1` (stereo not shown): the “hERG current change (%, negative = inhibition) at 1uM” value came to 8.87%.

Consider `CCN(CC(=O)Nc1ccc(NC(C)=O)cc1)C(=O)CSc1nnc(-c2ccco2)n1CC`, for which the “hERG current change (%, negative = inhibition) at 1uM” value came to 16.2%.

Regarding `COc1ccc(OC)c(-c2csc(NC(=O)C3CSC4(C)CCC(=O)N34)n2)c1` (stereo not shown), the “hERG current change (%, negative = inhibition) at 1uM” value was found to be 5.28%.

Regarding `O=C(NCc1cccnc1)c1nnc(Cc2ccc(F)cc2)o1`, the “hERG current change (%, negative = inhibition) at 1uM” value came to 10.8%.

`Cc1ccc(C(=O)N=c2sccn2C)cc1S(=O)(=O)N1CCOCC1`: the “hERG current change (%, negative = inhibition) at 1uM” value came out at 1.51%.

As for `CCN(CC)c1ccc(NC(=O)CCS(=O)(=O)c2cccc3nsnc23)c(C)c1`, the “hERG current change (%, negative = inhibition) at 1uM” value was determined as 11%.

For the compound `COc1ccc(N2CCN(C(=O)c3ccc(C)cc3)CC2)c([N+](=O)[O-])c1`, the “hERG current change (%, negative = inhibition) at 1uM” value is recorded as -29.7%.

Consider `CCOc1cccc(CN2CCCC(CCC(=O)NCc3ccccc3F)C2)c1O` (stereo not shown), for which the “hERG current change (%, negative = inhibition) at 1uM” value is recorded as -18.1%.

Consider `Cc1cccc(-c2cc3nc(C)c(C)c(NCCCn4ccnc4)n3n2)c1`, for which the “hERG current change (%, negative = inhibition) at 1uM” value was -20.6%.

Consider `O=C(Nc1cc(C(F)(F)F)ccc1N1CCOCC1)C1CC1`, for which the “hERG current change (%, negative = inhibition) at 1uM” value turned out to be 9.37%.

Regarding `C[C@H](NC(=O)Cc1cccc2ccccc12)C(=O)NCc1ccccc1`, the “hERG current change (%, negative = inhibition) at 1uM” value was 8.27%.

With `NC(=O)COC(=O)C(Cc1ccccc1)NS(=O)(=O)c1ccccc1F` (stereo not shown), the “hERG current change (%, negative = inhibition) at 1uM” value is reported as 9.2%.

In the case of `COc1ccc(C2NC(=S)N(c3ccccc3)C(C)=C2C(=O)Nc2ccccc2)cc1` (stereo not shown), the “hERG current change (%, negative = inhibition) at 1uM” value was 13.2%.

In the case of `Cc1cc(=O)oc2c3c(cc(OCC(=O)NCCC(=O)O)c12)OC(C)(C)CC3`, the “hERG current change (%, negative = inhibition) at 1uM” value was 5.8%.

Turning to `CCN(CC(=O)NCc1ccc(Cl)cc1)C(=O)CN1C(=O)NC(CC)(c2ccccc2)C1=O` (stereo not shown), the “hERG current change (%, negative = inhibition) at 1uM” value was 11.7%.

For `COc1ccc(C(CNC(=O)c2cccc(NS(=O)(=O)c3ccc(C)c(F)c3)c2)N2CCCC2)cc1` (stereo not shown), the “hERG current change (%, negative = inhibition) at 1uM” value is listed as -17.6%.

Consider `CN(Cc1cccs1)C(=O)CSc1nc2ccccc2[nH]1`, for which the “hERG current change (%, negative = inhibition) at 1uM” value is recorded as -2.99%.

For the compound `COc1ccc(C)cc1S(=O)(=O)N(CC(=O)NCc1ccco1)c1ccc(C)cc1`, the “hERG current change (%, negative = inhibition) at 1uM” value is on record as -8.28%.

`O=C(COc1ccc(-c2nnco2)cc1)Nc1c(Cl)cccc1C(F)(F)F`: the “hERG current change (%, negative = inhibition) at 1uM” value was determined as 1.19%.

With `O=Nc1c(O)[nH]c2c(F)cccc12`, the “hERG current change (%, negative = inhibition) at 1uM” value amounted to 11.7%.

`CCC(C)NC(=O)COC(=O)c1csc2c1CCCC2` (stereo not shown): the “hERG current change (%, negative = inhibition) at 1uM” value stood at 10.4%.

For the compound `CCc1ccc(N2CC(C(=O)Nc3nccs3)CC2=O)cc1` (stereo not shown), the “hERG current change (%, negative = inhibition) at 1uM” value is -0.303%.

As to `C=CCc1cccc2cc(C(=O)N3CCN(C(=O)OCC)CC3)c(=O)oc12`, the “hERG current change (%, negative = inhibition) at 1uM” value is given as -14.1%.

`CN1C(=O)C(CC(=O)Nc2ccc(Cl)cc2)N(Cc2ccco2)C1=S` (stereo not shown): the “hERG current change (%, negative = inhibition) at 1uM” value was determined as 14.4%.

In the case of `O=C(NCc1ccc2c(c1)OCO2)c1cccs1`, the “hERG current change (%, negative = inhibition) at 1uM” value is -9.19%.

For `COc1ccc(N2C(=O)CC(Nc3cccc(C(C)=O)c3)C2=O)cc1OC` (stereo not shown), the “hERG current change (%, negative = inhibition) at 1uM” value was 10.8%.

Take `Cc1cccc(N(CC(=O)NC(C)(C)C)C(=O)CCC(=O)Nc2ccccn2)c1`: the “hERG current change (%, negative = inhibition) at 1uM” value stood at 19.3%.

Regarding `CC(C)CCOP(=O)(c1ccc(N(C)C)cc1)C(O)c1ccc(N(C)C)cc1` (stereo not shown), the “hERG current change (%, negative = inhibition) at 1uM” value was determined as 5.5%.

Take `O=[N+]([O-])c1ccc(N/N=C/C=C/c2ccco2)cc1`: the “hERG current change (%, negative = inhibition) at 1uM” value is listed as -6.06%.

Take `CC(C)(C)C(=O)NC1(C(F)(F)F)NC(=O)N(c2ccccc2F)C1=O` (stereo not shown): the “hERG current change (%, negative = inhibition) at 1uM” value was determined as 11.7%.

As to `O=C(O)CCC(=O)Nc1ccc(Br)c(Cl)c1`, the “hERG current change (%, negative = inhibition) at 1uM” value was 17.6%.

Regarding `O=C(NC1CCC(O)CC1)c1cccnc1Sc1ccccc1Cl` (stereo not shown), the “hERG current change (%, negative = inhibition) at 1uM” value is 11.2%.

Take `O=C(COc1ccccc1)NC(=S)Nc1cccc(NC(=O)c2ccccc2Cl)c1`: the “hERG current change (%, negative = inhibition) at 1uM” value is 10.8%.

For `COc1ccc(NC(=O)CSc2nc3ccccc3c3nc4ccccc4n23)cc1`, the “hERG current change (%, negative = inhibition) at 1uM” value turned out to be 11.1%.

In the case of `COc1cc(NC(=O)CSc2nc3ccccc3c(=O)n2C)ccc1NC(=O)c1ccco1`, the “hERG current change (%, negative = inhibition) at 1uM” value is -2.05%.

In the case of `COc1ccc(Nc2nc(N3CCCCC3)nc3ccccc23)c(OC)c1`, the “hERG current change (%, negative = inhibition) at 1uM” value is on record as -12.1%.

Regarding `Cc1ccc2cc3c(N)[nH]nc3nc2c1`, the “hERG current change (%, negative = inhibition) at 1uM” value was 6.77%.

For the compound `CN/C(=C\[N+](=O)[O-])NCCSCc1ccc(CN(C)C)o1.Cl`, the “hERG current change (%, negative = inhibition) at 1uM” value is reported as 14.3%.

`COC(=O)C1(Cc2ccccc2)NC(c2ccccc2C)C2C(=O)N(c3ccc4c(c3)OCO4)C(=O)C21` (stereo not shown): the “hERG current change (%, negative = inhibition) at 1uM” value is 2.84%.

As to `CC(=O)Nc1ccccc1OCC(=O)NC(C)c1ccccc1` (stereo not shown), the “hERG current change (%, negative = inhibition) at 1uM” value is given as 8.82%.

`Cc1nc2ccc(NC(=O)c3ccc(Cl)c(S(=O)(=O)N(C)c4ccccc4)c3)cc2s1`: the “hERG current change (%, negative = inhibition) at 1uM” value was 14.4%.

For the compound `CN(CC(=O)Nc1ccc(F)cc1)C(=O)CNC(=O)C1CCCCC1`, the “hERG current change (%, negative = inhibition) at 1uM” value is 0.884%.

Turning to `CCCCNC(=O)C1Cc2cc(S(=O)(=O)N3CCCCC3)ccc2N1C(C)=O` (stereo not shown), the “hERG current change (%, negative = inhibition) at 1uM” value stood at 15.6%.

Regarding `COc1ccc(N(Cc2cc3ccccc3[nH]c2=O)S(=O)(=O)c2ccc(C)cc2)cc1`, the “hERG current change (%, negative = inhibition) at 1uM” value is 13.9%.

Take `N[C@@H](Cc1ccc(O)c(I)c1)C(=O)O`: the “hERG current change (%, negative = inhibition) at 1uM” value amounted to 15.1%.
